Screen size: about 350,000 compounds; about 9,900 (2.8%) were called active. Inconclusive results, whose numbers are uncertain, are shown with a selection of clear calls. Calls follow the shape of the dose curve; as a rule, active = well fitted activation curve with a large enough effect; inconclusive = small, poorly fitted or top-dose-only effect; inactive = no such curve, though single readings can be large or run the other way. Potencies of inconclusive entries are left out as doubtful fits.
assay: A quantitative high throughput screen for small molecules that induce DNA re-replication in MCF 10a normal breast cells.; also: nearly all actives have a fitted effect of over 50% in size; as to activity, positive = re-replication: % of control where 0% means no effect; conditions: MCF 10A DNA re-replication, Hoechst nuclear intensity, 48 h; activity, positive = re-replication: at 46.1 µM (top of the series)
Potency is read from the fitted curve at half-maximal effect; tags tell the direction and shape of the fitted curve.

SMILES | Potency | activity, positive = re-replication
C/C(=N\NC(=O)OC(C)(C)C)c1ccccc1Br | inconclusive [activator, single point] | –
CC1CCC(C(C)C)C(OC(=O)C[n+]2cccc(C(N)=O)c2)C1 (configuration not stated) | inconclusive [activator, partial curve, poor fit] | –
COc1ccc(NC(=O)N2CCCC2C(=O)Nc2ccc(C)cc2C)cc1 (configuration not stated) | – | inactive: 6.84%
Cn1c(/C=C/c2ccc([N+](=O)[O-])o2)nc2ccccc2c1=O | active: 5.17 µM | –
O=[N+]([O-])c1c(Nc2ccccc2O)ccc2nonc12 | inconclusive [activator, partial curve, poor fit] | –
COc1ccccc1NC1=C(C)C(=O)CC1 | inconclusive [activator, single point] | –
COCCN1Cc2cccc(C(=O)Nc3cccnc3)c2C1=O | inconclusive [activator, single point] | –
CN(Cc1ccccc1)C(=O)c1cccc(NC(=O)Cc2ccc(NC(=O)C3CCN(C(=O)C4CCC4)CC3)cc2)c1 | – | inactive: 4.79%
CC(C)Oc1ccc(CNC(=O)CC(c2ccccc2)c2cc(Cl)ccc2O)cc1 (configuration not stated) | inconclusive [activator, single point] | –
Cc1cccc(NC(=O)c2cc(-c3ccco3)nc3ccccc23)n1 | inconclusive [activator, single point] | –
CC(C)c1ccc(OCC(=O)NNC(=S)NC(=O)c2cccs2)c(Br)c1 | inconclusive [activator, partial curve, poor fit] | –
CCCCN(CC)C(=O)c1cc2cc3ccc(OC)cc3nc2o1 | inconclusive [activator, single point] | –
CCN1CCN(c2ccc(Nc3ccnc4ccccc34)cc2)CC1 | inconclusive [activator, single point] | –
Cc1cc(C)c(OCC(=O)Nc2ccc(S(=O)(=O)N3CCOCC3)cc2)c(C)c1 | – | inactive: 0.117%
CNc1nc(Nc2ccccc2)nc(OCC(F)(F)F)n1 | inconclusive [activator, partial curve, poor fit] | –
COc1ccccc1NC(=O)c1ccccc1NS(=O)(=O)c1cccs1 | – | inactive: -23.6%
COc1ccccc1-c1c(C)nn2c(N3CCCCCC3)cc(C)nc12 | inconclusive [activator, single point] | –
Cn1c2ccccc2c(=O)c2c(=O)n(C3CCCCCC3)c(C3CCCCC3)nc21 | inconclusive [activator, single point] | –
CCOC(=O)C1=C(C)OC2(O)c3ccccc3C(=O)C12O (configuration not stated) | inconclusive [activator, single point] | –
CC1CCN(C(=O)c2nc[nH]c2C(=O)O[C@H](C)c2ccccc2)CC1 | inconclusive [activator, partial curve, poor fit] | –
CCc1nc(C)c(-c2ccccc2)c(=O)[nH]1 | inconclusive [activator, single point] | –
FC(F)(F)c1cccc(Oc2nc(-c3ccccc3)nnc2C(F)(F)F)c1 | active: 14.6 µM | –
COc1ccc(NC(=O)CSc2nnc(CN3CCOCC3)n2-c2ccccc2)cc1Cl | inconclusive [activator, full curve] | –

SMILES | Potency | activity, positive = re-replication
Cc1cc(C)cc(N=C2NC(=O)/C(=C/c3cccs3)S2)c1 | inconclusive [activator, single point] | –
Cc1ccccc1NC(=O)C(=O)NCCc1c[nH]c2ccccc12 | – | inactive: 0.51%
Cc1ccc2c(CN3CCCCC3)cc(=O)oc2c1C | inconclusive [activator, single point] | –
Cc1cc(Nc2ccccc2)c2c([N+](=O)[O-])c(C)cc(C)c2n1 | – | inactive: 20.1%
O=C(O)c1cc2sccc2s1 | inconclusive [activator, single point] | –
Cc1ccc(/C=C/C(=O)N2CCN(S(=O)(=O)c3ccc(C)c(C)c3)CC2)o1 | inconclusive [activator, single point] | –
Cc1cc(=O)oc2c3c4c(cc12)OCCN4CCC3 | inconclusive [activator, single point] | –
CC(C)N1CCc2c(sc(NC(=O)c3ccc(S(=O)(=O)N4CCc5ccccc54)cc3)c2C(N)=O)C1 | inconclusive [activator, single point] | –
COc1ccc(NC(=O)CC2C(=O)N(c3ccc(F)cc3)C(=S)N2NC(=O)c2ccc(Cl)cc2)cc1 (configuration not stated) | inconclusive [activator, single point] | –
CCOC(=O)C(C(=O)OCC)C(Nc1ccccc1)c1ccccc1 (configuration not stated) | active: 20.6 µM | –
COc1cc(Br)c(CC(=O)NC2CC2)cc1OC | – | inactive: 3.55%
CN1CCN(Cn2cc(/C=C/C(=O)c3ccccc3)c3ccccc32)CC1 | inconclusive [activator, single point] | –
CCOC(=O)C1CCN(CCC(=O)Nc2ccc(F)cc2)CC1 | inconclusive [activator, single point] | –
Clc1ccccc1/C=C/C=N/Nc1nc(N2CCOCC2)nc(N2CCOCC2)n1 | inconclusive [activator, partial curve, poor fit] | –
CC(=O)N1CC(=O)N=C1SCC(=O)Nc1nc(C)c(-c2ccccc2)s1 | inconclusive [activator, single point] | –
O=C(/C=C/c1ccc2c(c1)OCO2)c1ccc(F)cc1 | inconclusive [activator, full curve, poor fit] | –
CCCCN1C(=N)N([C@@H](CCC)CN2CCC[C@H]2CN2C(N)=NC[C@H]2CC(C)C)C[C@H]1Cc1ccccc1 | – | inactive: 5.84%
Cc1cccc(N(C)c2ccc3cc(S(=O)(=O)N4CCCC4)ccc3n2)c1 | inconclusive [activator, single point] | –
CSC1=NC(C)(C)C=C(/C=C/c2ccc(Cl)cc2Cl)N1 | inconclusive [activator, single point] | –
COC(=O)c1ccc(/C=N/OCC(=O)NCc2ccc(F)cc2)cc1 | inconclusive [activator, partial curve, poor fit] | –
CCC(CC)C(=O)c1c[nH]c(C(=O)NCCc2ccccn2)c1 | – | inactive: -2.98%
COc1cc(-c2nnc(SCC3(c4ccc(Br)cc4)OCCO3)o2)cc(OC)c1OC | inconclusive [activator, partial curve, poor fit] | –
OCCCNc1cc(-c2ccccc2)nc2cc(-c3ccc(F)cc3)nn12 | inconclusive [activator, single point] | –

SMILES | Potency | activity, positive = re-replication
CCN1C/C(=C\c2cc(OC)c(OC)c(OC)c2)C2=NN(c3ccccc3)C(c3cc(OC)c(OC)c(OC)c3)C2C1 (configuration not stated) | inconclusive [activator, full curve, poor fit] | –
COC(=O)[C@]1(C)N[C@H](CN(C)C(=O)c2ccccc2)[C@@H]2C(=O)N(C)C(=O)[C@@H]21 | – | inactive: -11.1%
O=C(NCC(c1cccs1)N1CCOCC1)c1ccc(Cl)c([N+](=O)[O-])c1 (configuration not stated) | inconclusive [activator, single point] | –
COc1ccc(NC(=O)[C@H](NC(=O)[C@@H]2Cc3ccccc3CN2)c2ccccc2)cc1 | – | inactive: 1.04%
O=C(CCCOc1ccccc1)Nc1ccc(Cl)cn1 | inconclusive [activator, single point] | –
Cc1nc2scc(C)n2c(=O)c1S(=O)(=O)N1CCN(c2cccc(C(F)(F)F)c2)CC1 | – | inactive: 11.5%
O=C(N1CCN(S(=O)(=O)c2ccc(Cl)cc2)CC1)n1ccnc1 | inconclusive [activator, single point] | –
Cc1ccc2c(c1)N(CC(=O)NCC(C)c1ccccc1)C(=O)c1cccnc1O2 (configuration not stated) | – | inactive: -3.53%
O=C(COC(=O)c1cccc(Cl)c1)Nc1cc(Cl)ccc1Oc1ccccc1 | inconclusive [activator, partial curve, poor fit] | –
Cc1ccc(-c2cc(N)n[nH]2)cc1 | inconclusive [activator, full curve, poor fit] | –
COc1ccc(C(=O)/C=C2/c3ccccc3CC(C)(C)N2C)cc1 | inconclusive [activator, single point] | –
CC(C)c1ccc(/C=N/NC(=O)c2cc(-c3cccc([N+](=O)[O-])c3)n[nH]2)cc1 | active: 18.4 µM | –
CCC(=O)NC(c1ccc(C)cc1)c1cc([N+](=O)[O-])c2cccnc2c1O (configuration not stated) | inconclusive [activator, partial curve, poor fit] | –
Cc1ccccc1N=C1NN=C(c2ccccc2F)CS1 | – | inactive: 27%
COc1ccc2c(c1)c1nc3ccccc3nc1n2CC(=O)OC(C)C | inconclusive [activator, partial curve] | –
Cc1noc(C)c1COC(=O)c1cccc(S(=O)(=O)N2c3ccccc3CC2C)c1 (configuration not stated) | inconclusive [activator, partial curve, poor fit] | –
Cc1cc(N2C(=O)C(O)=C(C(=O)c3ccc(C)o3)C2c2cccc(Oc3ccccc3)c2)no1 (configuration not stated) | active: 25.9 µM | –
CCOC(=O)C1=C(CS(=O)(=O)c2ccccc2)NC(=O)NC1c1ccccc1OC (configuration not stated) | – | inactive: -10.7%
Cc1ccc(C2OC3=C(C(=O)CC(C)(C)C3)C(N)=C2C#N)o1 (configuration not stated) | – | inactive: 8%
CCC(C)Cn1cnc2c(Sc3c([N+](=O)[O-])ncn3C)nc(N)nc21 (configuration not stated) | inconclusive [activator, single point] | –
Cc1cc(C)c2[nH]c(=O)c(CN(CC3CCCO3)C(=S)NCc3ccco3)cc2c1 (configuration not stated) | – | inactive: -1.04%

From PubChem BioAssay AID624296 (National Center for Advancing Translational Sciences (NCATS), 2012)
